The whole screen tested about 360,000 compounds, of which about 17,000 (4.7%) were called active. The inconclusive results got no clear call from the source; some entries with a clear call stand among them for comparison. No stated cut-off is given here; in the data, active means activity change below about -50%; inconclusive means mostly about -30% to -49%; inactive means weaker than that.
assay: qHTS for Inhibitors of Inflammasome Signaling: IL-1-beta AlphaLISA Primary Screen; details: THP-1 LPS/ATP IL-1B secretion, 16 h; at 57.5 µM, active compounds read low
In short: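 THP-1 cells pretreated 1 hr with compounds (up to 57.5 uM final), then stimulated with LPS (250 ng/mL final) plus ATP (1.25 mM final); secreted IL-1B measured by AlphaLISA after 16 hr, decreased signal indicating inhibition.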
On the % scale 0 is the no-effect control and ±100 the full control effect.

Activity change, active:
C[C@H]1C[C@H]2[C@@H]3CCC4=CC(=O)C=C[C@]4(C)[C@@]3(Cl)[C@@H](O)C[C@]2(C)[C@@]1(O)C(=O)CO -59.3%, O=C(Nc1ccccc1)c1ccc[n+](Cc2ccc([N+](=O)[O-])cc2)c1 -59.2%, O=[N+]([O-])c1ccc(Oc2ccc(S(=O)(=O)Nc3ccccc3)cc2)cc1 -72.2%, O=C(c1cccs1)N1CCN(Cc2cccc([N+](=O)[O-])c2)CC1 -53%, Cc1c(Cl)cccc1NC(=O)CN1CCC(C(O)(c2ccccc2)c2ccccc2)CC1 -54.5%, Cc1cc2cc(CN(Cc3cccs3)C(=S)NCC3CCCO3)c(=O)[nH]c2cc1C (stereo unspecified) -65.9%, Cc1ccc(CNC(=O)CN2C(=O)NC(C)(c3ccc(Cl)cc3)C2=O)cc1 (stereo unspecified) -51.8%, COc1ccc(-c2c3c(=O)n(C)c(=O)n(C)c3cn2C2CCCCC2)cc1 -53.8%, O=C(CN1c2ccccc2Sc2ccccc21)NNC(=O)Nc1cccc(Cl)c1 -88.3%, COc1ccc(CNC(=O)c2csc(Cc3ccc(Cl)cc3)n2)cc1 -55.1%, CC(CC(=O)Nc1cccc(Cl)c1)c1ccccc1 (stereo unspecified) -72.1%, COc1ccc(/C=N/Nc2nc(-c3cccnc3)nc3ccccc23)cc1OC -51.7%, Cc1c(Cl)cccc1NC(=S)NCCc1ccc(F)cc1 -82.2%, COc1cc(C(=O)ONC(=O)c2ccc(OC(F)F)cc2)cc(OC)c1OC -66.5%, O=C(Nc1nc2ccccc2[nH]1)c1ccc(Cl)c(S(=O)(=O)N2CCCC2)c1 -58.6%, COc1ccc2c(c1)CC/C(=C/c1ccncc1)C2=O -105%, C=CCNC(=O)c1c(N)n(-c2cccc(S(N)(=O)=O)c2)c2nc3ccccc3nc12 -58.8%, Cc1ccc(-n2c(CCc3ccccc3)nnc2SCC(=O)NCc2ccccc2)cc1C -57.1%

Activity change, inactive:
O=C(C[C@H]1CC[C@@H](NC(=O)C2CC2)[C@@H](CO)O1)NCc1ccccc1Cl 35.3%, CSC1=NC(C)N2C(SC)=NC(C)N12 (stereo unspecified) 6.9%, O=c1[nH][nH]c(-c2ccccc2)c1-c1ccccc1 -13.7%, Cc1ccc(S(=O)(=O)CCC(=O)Nc2nc(C(C)(C)C)cs2)cc1 29.3%, OC(c1cc(F)cc(Cl)c1)c1ncc(-c2ccccc2C(F)(F)F)[nH]1 (stereo unspecified) 21%, CCN(CC)C(=S)NC(=O)c1cc(OC)c(OC)c(OC)c1 -16.5%, COC(=O)CCCn1cc(CN2CC(N3CCN(Cc4ccccc4F)CC3)CS2(=O)=O)nn1 (stereo unspecified) 17.7%, Cc1ccc(NS(=O)(=O)c2cc(-c3n[nH]c(=O)c4ccccc34)ccc2C)cc1 -3.3%, CC/C(=N\NC(=O)c1nnn(-c2nonc2N)c1-c1ccc2c(c1)OCO2)c1ccccc1 0.256%, O=[N+]([O-])c1cccc(C=NNc2ccc3ccccc3n2)c1O 83.8%, COc1ccc(C(=O)NC(=S)Nc2ccccc2[N+](=O)[O-])cc1OC 0%, CN(c1ccccc1)S(=O)(=O)c1cccc(NC(=O)COC(=O)C2CCCCC2)c1 -10.1%, CCOC(=O)c1[nH]c2ccc(OC)cc2c1NC(=O)CN1CCSCC1 -6.81%, Cc1nn(-c2ccccc2)c(C)c1/C=C/C(=O)OC(C)C(N)=O (stereo unspecified) 9.76%, Cc1nn(-c2ccccc2)c(C)c1NC(=O)COc1ccc(Br)cc1Cl -8.54%, CC(O)(CS(=O)(=O)Cc1ccccc1Cl)C(=O)Nc1cccc(C(F)(F)F)c1 (stereo unspecified) -9.29%, CCOc1ccc(CCNC(=O)c2cccc(-n3cnnn3)c2)cc1OCC 31.6%, COc1cccc(NC(=O)Nc2cc(C)ccc2OC)c1 -6.87%, O=C(/C=C/[C@H]1O[C@@H](n2ccc(=O)[nH]c2=O)[C@H](O)[C@@H]1O)N[C@@H](Cc1ccccc1)C(=O)O 0%, CC(C)N=C(NS(=O)(=O)NC(=O)c1ccccc1)c1ccccc1 0%, C=CCN(CC=C)S(=O)(=O)c1ccc2nc(NC(=O)C(C)C)sc2c1 28.2%, CC(C)C[C@H](NC(=O)c1[nH]cnc1C(=O)N[C@@H](Cc1ccccc1)C(=O)OC(C)(C)C)C(=O)OCc1ccccc1 -6.05%, CCOc1ccc(CSC(=N)N)cc1 22.3%, COc1cc(C(=O)N=c2sc3ccccc3n2C)cc(OC)c1OC 23%, CCc1c(C(=O)NNC(=S)NC2CCCCC2)csc1C -7.3%, COc1cc2c(=O)n(CCC(=O)NCC3CCCO3)c(=O)n(CC(=O)Nc3ccc(C)cc3C)c2cc1OC (stereo unspecified) 11.5%, Cc1ccc(CNC(=O)C2CC(c3cc(C(F)(F)F)cc(C(F)(F)F)c3)=NO2)o1 (stereo unspecified) 30.5%, C/C(Cn1nc([N+](=O)[O-])cc1C)=N\NC(=O)COc1ccccc1[N+](=O)[O-] 9.96%, CC(C)N(C)CCOC(=O)c1ccccc1Br -3.93%

Activity change, inconclusive:
OC[C@@H]1CN(Cc2ccc(-c3ccccc3)cc2)C[C@H](n2cnc3c(Nc4ccccc4)ncnc32)O1 -42.2%, Cc1cccc(NC(=O)NNC(=O)c2ccc(C)c([N+](=O)[O-])c2)c1 -43.8%, CCOc1ccc(C(=O)Nc2c(C(=O)N3CCC(N4CCCCC4)CC3)oc3ccccc23)cc1 -37.7%, O=[N+]([O-])c1ccc2nc(-c3ccccc3[N+](=O)[O-])[nH]c2c1 -36.6%, C=CCn1cnc2scc(-c3ccc(CC)cc3)c2c1=O -48.2%, COC(=O)C(F)(F)Sc1c(C)[nH]c2ccccc12 -46.6%, COc1cc2c(cc1OC)CN(C(=O)CSc1nc(C)cc(C)c1C#N)CC2 -36.6%, Cc1ccccc1CN(C)CCS(=O)(=O)c1cc(Cl)ccc1Cl -37.6%, Cc1cnc(-c2nnc(N(C)C(=O)C3CCCO3)s2)cn1 (stereo unspecified) -37.8%, N/C(=N\OC(=O)COc1ccc2ccccc2c1)c1cccnc1 -34.3%, O=C(COc1ccc(-c2nnco2)cc1)Nc1c(F)cccc1F -45.7%, O=Nc1c2ccc[nH]c-2c2ccc([N+](=O)[O-])cc12 -34.5%, O=C(/C=C/c1cccs1)Nc1ccc(N2CCOCC2)c(S(=O)(=O)Nc2ccccc2Cl)c1 -34.6%, CCCCc1c(-c2ccccc2OC)ncn1Cc1ccc(-c2ccccc2)cc1 -38.3%, CC(C)(C)c1cc(OC(=O)C2CCCC2)ccc1O -39.6%, Cc1ccccc1NC(=O)CON=C(N)c1ccccc1 -36.4%, Cc1ccc(C(=O)Nc2ccc(N3CCN(C)CC3)cc2)c(Cl)c1 -31.6%, Cc1ccc2nc(SCC(=O)N3N=C(c4cccs4)CC3c3ccc(F)cc3)nc(=O)n2c1 (stereo unspecified) -47.3%, COCCCNC(=O)c1ccc(-n2nc(C(F)(F)F)cc2-c2cccs2)cc1 -41.2%, COc1ccc(O)c(C(=O)c2cnc3onc(C)c3c2)c1 -34.4%, CCOC(=O)CNC(=O)c1c(C)nn(-c2ccccc2)c1Cl -33.6%, O=C1[C@@H]2Cc3c([nH]c4ccccc34)C(c3ccccc3)N2C(=O)CN1C1CC1 (stereo partly specified) -30.4%, O=C(Nc1ccc2c(c1)OCO2)c1cccc2c1C(=O)N(Cc1cccnc1)C2 -41.1%, Nc1n[nH]c2cc(=O)n(-c3cccc(C(F)(F)F)c3)nc12 -37.5%, Cc1ccc(C)n1-c1nn(S(=O)(=O)c2cccc(C(F)(F)F)c2)c2cccc(F)c12 -46%, CS(=O)(=O)N(Cc1nc(-c2ccc(F)cc2)no1)c1ccccc1Cl -36.7%, Cc1ccc(NC(=O)c2c(C)nc(Nc3nc4ccccc4o3)nc2C)cc1 -33.4%, Nc1cc(Cl)nc(N/N=C/c2ccccc2[N+](=O)[O-])n1 -35.4%, CCOc1ccccc1N1CCN(C(=O)c2csc(C)c2CC)CC1 -35.3%, Cc1ccccc1Nc1nc(-c2ccccc2)c(C(=O)Nc2cccnc2)s1 -40.1%, COC(=O)C1=CN(c2ccc(Cl)cc2)C=C(C(=O)OC)C1c1ccc([N+](=O)[O-])cc1 -37.6%, CCn1c(CNc2ccc(Cl)cc2)nnc1SCc1ccc(C)cc1 -44.7%, CCCNC(=O)Cn1sc2nc(C)cc(C)c2c1=O -47.4%, COc1ccccc1CNc1nc(Nc2ccc(C)cc2C)c2sccc2n1 -46.9%, CCOC(=O)c1ccc(NC(=O)c2c(Cl)cc(C)nc2C)cc1 -33.8%, COc1ccccc1/C=C1\SC(=S)N(CCC(=O)Nc2nnc(C)s2)C1=O -36%, CC1(C)C2CC=C(/C=N/NC(=S)NCCc3ccccc3)C1C2 (stereo unspecified) -42.7%, CC1CCCCN1CCNC(=O)c1ccc2c(c1)N(Cc1cccc(Cl)c1)C(=O)c1ccccc1S2(=O)=O (stereo unspecified) -39.6%, COc1ccc(CN(C)CC2CCCN(CCc3ccc(F)cc3)C2)cc1OC (stereo unspecified) -33.6%

From PubChem BioAssay AID743279 (National Center for Advancing Translational Sciences (NCATS), 2014)
